# Reference: PubChem BioAssay AID1347165 (National Center for Advancing Translational Sciences (NCATS), 2019)
# Where “and” joins values, the source holds several entries; their conditions need not be identical. Identical values can stand only once. The whole screen tested about 220,000 compounds, of which about 5,700 (2.6%) were called active. This list was built around the results that the source calls inconclusive (neither active nor inactive); the mix of calls is not that of the screen. The call rests on the fitted dose curve; in most records, active means well fitted inhibition curve with a large enough effect; inconclusive means small, poorly fitted or top-dose-only effect; inactive means no such curve, though single readings can be large or run the other way. Where the call is inconclusive, the potency comes from a doubtful curve fit.
# Target: Lysine-specific demethylase 5B (Homo sapiens) (UniProt Q9UGL1)
# Experiment: Primary screen for KDM5B Histone Demethylases FDH-coupled qHTS; further: nearly all actives have a fitted effect of over 70% in size; on activity change, negative = inhibition: 0% is about no effect
# Conditions: FDH-coupled NADH fluorescence (FDH is formaldehyde dehydrogenase); activity change, negative = inhibition: at 57.7 µM (top of the series) unless noted
# Method in brief: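 Inhibition is measured as reduced NADH fluorescence generation from FDH coupling to formaldehyde release. Truncated KDM5BΔAP at 200 nM final acts on H3K4me3 peptide (12.5 µM in substrate mix) in pH 7.5 HEPES buffer with Tween-20, 30 min, room temperature.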
# Potency means the concentration at half of the fitted maximal effect; tags describe the fitted curve by direction and shape.
# Chain of UniProt Q9UGL1 (Q9UGL1 whole entry, looked up): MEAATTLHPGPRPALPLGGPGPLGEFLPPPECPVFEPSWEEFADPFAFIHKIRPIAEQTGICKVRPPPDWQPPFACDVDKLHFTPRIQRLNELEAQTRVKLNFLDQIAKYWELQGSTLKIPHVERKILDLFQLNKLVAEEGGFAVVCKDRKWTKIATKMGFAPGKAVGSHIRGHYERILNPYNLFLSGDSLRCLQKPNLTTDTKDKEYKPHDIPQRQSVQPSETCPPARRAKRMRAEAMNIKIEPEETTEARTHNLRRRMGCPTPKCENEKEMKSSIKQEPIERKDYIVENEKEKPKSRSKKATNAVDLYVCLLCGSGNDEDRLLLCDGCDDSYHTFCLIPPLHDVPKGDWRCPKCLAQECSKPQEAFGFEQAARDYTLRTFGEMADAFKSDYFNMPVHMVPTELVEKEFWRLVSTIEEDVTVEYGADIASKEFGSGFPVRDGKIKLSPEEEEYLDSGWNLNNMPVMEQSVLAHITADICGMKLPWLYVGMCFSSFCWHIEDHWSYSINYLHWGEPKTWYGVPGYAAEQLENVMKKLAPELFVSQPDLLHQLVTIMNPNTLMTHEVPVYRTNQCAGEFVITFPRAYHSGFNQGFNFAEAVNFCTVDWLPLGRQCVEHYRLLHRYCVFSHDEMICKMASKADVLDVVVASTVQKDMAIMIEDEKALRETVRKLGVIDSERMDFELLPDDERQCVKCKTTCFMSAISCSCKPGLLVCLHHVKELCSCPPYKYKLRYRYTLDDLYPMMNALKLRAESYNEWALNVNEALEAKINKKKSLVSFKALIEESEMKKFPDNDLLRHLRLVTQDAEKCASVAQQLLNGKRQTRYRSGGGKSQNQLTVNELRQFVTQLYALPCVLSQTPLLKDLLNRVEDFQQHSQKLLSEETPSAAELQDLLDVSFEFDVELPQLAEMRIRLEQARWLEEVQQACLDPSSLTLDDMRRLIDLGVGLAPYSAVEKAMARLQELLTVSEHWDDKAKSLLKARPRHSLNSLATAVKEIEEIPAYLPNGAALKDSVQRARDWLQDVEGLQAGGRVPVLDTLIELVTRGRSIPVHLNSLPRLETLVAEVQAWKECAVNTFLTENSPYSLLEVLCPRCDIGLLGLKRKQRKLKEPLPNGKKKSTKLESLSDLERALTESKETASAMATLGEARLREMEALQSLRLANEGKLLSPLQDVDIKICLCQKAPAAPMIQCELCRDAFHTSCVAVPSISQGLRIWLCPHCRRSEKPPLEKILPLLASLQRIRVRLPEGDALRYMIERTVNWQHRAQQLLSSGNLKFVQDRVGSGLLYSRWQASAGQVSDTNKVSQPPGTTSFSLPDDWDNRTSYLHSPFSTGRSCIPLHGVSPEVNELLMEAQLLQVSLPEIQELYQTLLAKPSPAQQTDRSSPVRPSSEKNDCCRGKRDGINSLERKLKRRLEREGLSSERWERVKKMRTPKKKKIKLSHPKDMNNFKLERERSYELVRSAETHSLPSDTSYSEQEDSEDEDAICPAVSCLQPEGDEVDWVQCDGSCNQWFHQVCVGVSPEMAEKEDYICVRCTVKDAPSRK
SMILES,"activity change, negative = inhibition",Potency
Cc1cc(C)c(OCC(=O)NC2=NCCS2)c(C)c1,inactive: -1.19%,
COCCOc1ccnc(-c2noc([C@@H]3CCCN3Cc3ccncc3)n2)c1,,"inconclusive: 31.6 µM [inhibitor, partial curve]"
O=C(Nc1ccc(Cl)c(C(F)(F)F)c1)c1ccc(F)cc1,inactive: -7.47%,
COc1ccc2c(c1)cc(C(=O)N[C@@H](CCSC)C(=O)N1CCC(C(=O)O)CC1)n2C,,"inconclusive: 28.2 µM [inhibitor, partial curve, poor fit]"
CCCCNC(=O)CN1CCN(C(=O)c2cc(-c3cccs3)nc3ccccc23)CC1,,"inconclusive: 25.1 µM [inhibitor, partial curve, poor fit]"
COc1cc(NS(=O)(=O)c2ccc(-c3cnc(C4CC4)o3)cc2)cc(OC)c1OC,inactive: 9.02%,
CCn1nccc1C(=O)N1CCCn2cc(-c3ccccc3F)nc21,inactive: -23.1%,
C/C(=N\NC(=O)c1nnn(-c2nonc2N)c1-c1ccccc1)c1ccccc1O,,"inconclusive: 39.8 µM [inhibitor, partial curve, poor fit]"
Cn1c(=O)c2c(ncn2CC(=O)Nc2nc(-c3ccc(-c4ccccc4)cc3)cs2)n(C)c1=O,,"inconclusive: 28.2 µM [inhibitor, single point]"
O=C(c1c(F)cccc1F)N1CCC(OC2CCN(Cc3ccccc3)CC2)CC1,inactive: 17.5%,
CC1=C(C(=O)N2CCOCC2)C(c2c(F)cccc2F)NC(=O)N1Cc1ccccc1 (stereo not drawn),inactive: 11.7%,
CCOc1ccc(Nc2cc(C)c3ccccc3n2)cc1,,"inconclusive: 31.6 µM [inhibitor, single point]"
Cc1ccc(NC(=O)c2ccc(CNS(=O)(=O)c3ccc4c(c3)C(C)(C)C(=O)N4C)cc2)cc1C,,"inconclusive: 44.7 µM [inhibitor, single point]"
COC(=O)c1ccc(NC(=O)C(NC(=O)c2ccc(OC)cc2)C(C)C)c(C)c1 (stereo not drawn),inactive: 16.2%,
CCn1nc(-c2ccc3c(c2)OCCO3)nc1N(C)C,,"inconclusive: 31.6 µM [inhibitor, partial curve, poor fit]"
Cc1occc1-c1nnc(SC(C(=O)N2CCCC2)c2ccccc2)n1-c1ccccc1 (stereo not drawn),inactive: -34%,
COCCNC(=O)c1nc(-c2ccccc2)c2ccccn12,inactive: -3390% [at 86.2 µM],
CN1c2cc(C(=O)NCCc3ccccc3)ccc2C(=O)N2CCCCC21 (stereo not drawn),,"inconclusive: 25.1 µM [inhibitor, partial curve, poor fit]"
Cc1nn(C)c2sc(C(=O)NCCc3ccc(C(=O)O)cc3)cc12,inactive: 15.7%,
COCCn1cc2c3c(cccc31)CN(C(=O)c1cccc(C(F)(F)F)c1)CC2,,active: 28.2 µM
O=C(C1CCCCC1)N1CCC2(CC1)NCc1ccccc1NC2=O,inactive: -7.56% [at 115 µM],
CCOC(=O)C1CCN(C(=O)c2ccc(NC(=O)c3nsc4ccccc34)cc2)CC1,,"inconclusive: 44.7 µM [inhibitor, single point]"

SMILES,"activity change, negative = inhibition",Potency
Cc1csc2nc(-c3cccc(NS(=O)(=O)c4cccs4)c3)cn12,inactive: 13.4%,
COc1ccc(C(=O)N2CCN(c3nnc4ccc(Cl)cn34)CC2)cc1,,"inconclusive: 12.6 µM [inhibitor, partial curve]"
O=C(NCc1ccccc1Cl)c1ccc(Cn2c(SCc3ccccc3)nc3cccnc32)cc1,,"inconclusive: 15.8 µM [inhibitor, partial curve, poor fit]"
Cc1ccc(Cl)cc1N1CCN(CC(=O)NC2CCCC2)CC1,inactive: 2.01%,
CCCOc1ccc(C(=O)NCc2coc(-c3cccs3)n2)cc1,,"inconclusive: 28.2 µM [inhibitor, single point]"
COc1ccc(-c2cc3ccc(OS(C)(=O)=O)cc3oc2=O)cc1OC,,"inconclusive: 39.8 µM [inhibitor, single point]"
CCCc1cc(=O)oc2cc(C)cc(OCC(=O)N[C@H](CO)[C@H](C)CC)c12,,"inconclusive: 20 µM [inhibitor, partial curve, poor fit]"
O=C(Nc1cccc(C(=O)N2CCN(c3cccc(Cl)c3)CC2)c1)c1nsc2ccccc12,,"inconclusive: 35.5 µM [inhibitor, single point]"
COC(=O)c1cc(-c2ccco2)nc2onc(-c3ccccc3)c12,,"inconclusive: 25.1 µM [inhibitor, partial curve, poor fit]"
COc1ccc(C(=O)N2CCc3c(nc4cc[nH]n4c3=O)C2)c(C)c1,,active: 28.2 µM
CCN1CCN(c2ccc(NC(=O)c3cc(Cl)ccc3OC)cc2)CC1,inactive: -10.8%,
CCNC(=O)c1cc(-c2ccc(Cl)cc2)nc2ccccc12,inactive: -10.8%,
COC(=O)[C@@H]1Cc2ncn(Cc3ccc(OC)cc3)c2CN1Cc1ccc(OC)cc1,,"inconclusive: 25.1 µM [inhibitor, partial curve]"
CC(C)CCn1nnc2sc(-c3ccccc3)cc2c1=O,,"inconclusive: 31.6 µM [inhibitor, single point]"
Cc1ccccc1NC(=O)c1sc(N)c(C#N)c1C,inactive: 1.99%,
CC(=O)Nc1ccc(C2OC(=O)N(Cc3cccc(F)c3)C2C(=O)NCC2CCCO2)cc1 (stereo not drawn),,"inconclusive: 31.6 µM [inhibitor, partial curve, poor fit]"
CCCS(=O)(=O)N[C@H]1C[C@@H](c2nc(-c3ccc(OC)cc3)no2)N(C)C1,,"inconclusive: 25.1 µM [inhibitor, partial curve, poor fit]"
N#Cc1nc(-c2ccc(F)cc2)oc1NCCc1ccccc1,,"inconclusive: 1.78 µM [inhibitor, partial curve, poor fit]"
CC(=O)c1ccc(Nc2ccc3cc(S(=O)(=O)N4CCCC4)ccc3n2)cc1,,"inconclusive: 31.6 µM [inhibitor, partial curve, poor fit] and inconclusive: 25.1 µM [inhibitor, partial curve, poor fit]"
O=S(=O)(O)CC(S)CS (stereo not drawn),,"inconclusive: 31.6 µM [inhibitor, single point]"
COc1ccc2c(c1)c1c(c(=O)n(-c3ccc(OC)c(OC)c3)c(=O)n1Cc1ccccc1F)n2C,,"inconclusive: 14.1 µM [inhibitor, partial curve, poor fit]"
